# Test results as given in PMC7558026, “Exploring and applying the substrate promiscuity of a C-glycosyltransferase in the chemo-enzymatic synthesis of bioactive C-glycosides” (Nature Communications, 2020).
# Read-outs that look alike come from different tables or passages of the source.
# Target: T1, AbCGT V183P (Aloe vera, UniProt A0A7G9P699, V183P)
# T1 sequence (A0A7G9P699 1-470 V183P): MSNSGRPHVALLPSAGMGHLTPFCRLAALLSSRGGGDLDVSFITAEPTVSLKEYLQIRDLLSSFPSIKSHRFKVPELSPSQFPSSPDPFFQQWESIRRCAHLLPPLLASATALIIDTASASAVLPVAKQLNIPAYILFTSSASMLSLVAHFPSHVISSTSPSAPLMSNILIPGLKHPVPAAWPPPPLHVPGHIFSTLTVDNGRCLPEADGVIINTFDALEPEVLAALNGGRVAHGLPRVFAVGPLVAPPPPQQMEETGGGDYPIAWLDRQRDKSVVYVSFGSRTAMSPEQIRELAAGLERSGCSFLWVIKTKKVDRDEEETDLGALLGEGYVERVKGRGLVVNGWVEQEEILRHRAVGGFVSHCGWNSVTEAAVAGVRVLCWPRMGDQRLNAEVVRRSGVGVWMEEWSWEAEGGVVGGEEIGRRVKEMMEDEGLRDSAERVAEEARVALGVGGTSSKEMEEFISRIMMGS
# Type: biochemical, Aloe barbadensis
# Experimental: The reaction mixture contained 0.5 mM sugar donors (1.0 mM for di-glycosylation), 0.25 mM aglycons, 50 mM Tris-HCl (pH 7.4), and 50‒100 μg of purified AbCGT in a final volume of 100 μL. Due to the instability of some acceptors in the buffer of pH 11.0, the reactions were performed under the physiological conditions (pH 7.4, 30 °C) to compare the catalytic activities of AbGT27 with different substrates under the same conditions. The reactions were performed at 30 °C for up to 12 h and terminated by the addition of 200 μL of ice-cold methanol. Subsequently, samples were centrifuged at 15,000 × g for 30 min to collect the supernatant, and aliquots were analyzed by HPLC-UV/ESIMS. HPLC analysis was performed on a Shiseido CAPCELL PAK C18 MG III column (250 mm × 4.6 mm I.D., 5 μm, Shiseido Co., Ltd., Japan) at a flow rate of 1 mL min^‒1. The mobile phase was a gradient elution of solvents A (0.1% formic acid aqueous solution) and B (methanol). The gradient programs were used for the analysis of the reactions (Supplementary Table 6). The conversion rates of the enzyme reactions were calculated from peak areas of glycosylated products and substrates as analyzed by HPLC. To facilitate inferential statistical analysis, three parallel assays were routinely performed; the means ± SD from triplicate analyses are reported here.
# Site-saturation mutagenesis of AbCGT at residue 183 was performed by PCR using pET28a-AbCGT as a template and the corresponding degenerate primers, which are listed in Supplementary Table 5. PCR products were purified and transformed into Trans1-T1 (DE3) E. coli. The sequences of pET28a-AbCGT mutants were confirmed by sequencing, and transformed into Transetta (DE3) E. coli for heterologous expression following protein purification.
smiles,measurement,setting,value
CC(=O)c1ccccc1O [Compound 1],V183P/yield of C-glycoside(%),reaction-1,0%
same,V183P/yield of O-glycoside(%),reaction-1,0%
same,V183P/yield of C-glycoside(%),reaction-2,0%
same,V183P/yield of O-glycoside(%),reaction-2,0%
same,V183P/yield of C-glycoside(%),reaction-3,0%
same,V183P/yield of O-glycoside(%),reaction-3,0%
CC(=O)c1cccc(O)c1 [Compound 2],V183P/yield of C-glycoside(%),reaction-1,0%
same,V183P/yield of O-glycoside(%),reaction-1,0%
same,V183P/yield of C-glycoside(%),reaction-2,0%
same,V183P/yield of O-glycoside(%),reaction-2,0%
same,V183P/yield of C-glycoside(%),reaction-3,0%
same,V183P/yield of O-glycoside(%),reaction-3,0%
CC(=O)c1ccc(O)cc1 [Compound 3],V183P/yield of C-glycoside(%),reaction-1,0%
same,V183P/yield of O-glycoside(%),reaction-1,0%
same,V183P/yield of C-glycoside(%),reaction-2,0%
same,V183P/yield of O-glycoside(%),reaction-2,0%
same,V183P/yield of C-glycoside(%),reaction-3,0%
same,V183P/yield of O-glycoside(%),reaction-3,0%
"CC(=O)c1cc(O)cc(O)c1 [Compound 4, 3,5-dihydroxyacetophenone]",V183P/yield of C-glycoside(%),reaction-1,0%
same,V183P/yield of O-glycoside(%),reaction-1,1.6%
same,V183P/yield of C-glycoside(%),reaction-2,0%
same,V183P/yield of O-glycoside(%),reaction-2,2.1%
same,V183P/yield of C-glycoside(%),reaction-3,0%
same,V183P/yield of O-glycoside(%),reaction-3,2%
CC(=O)c1c(O)cccc1O [Compound 5],V183P/yield of C-glycoside(%),reaction-1,8%
same,V183P/yield of O-glycoside(%),reaction-1,0%
same,V183P/yield of C-glycoside(%),reaction-2,9.2%
same,V183P/yield of O-glycoside(%),reaction-2,0%
same,V183P/yield of C-glycoside(%),reaction-3,8.6%
same,V183P/yield of O-glycoside(%),reaction-3,0%
"CC(=O)c1ccc(O)cc1O [Compound 6, 2,4-dihydroxyacetophenone]",V183P/yield of C-glycoside(%),reaction-1,14.5%
same,V183P/yield of O-glycoside(%),reaction-1,1.8%
same,V183P/yield of C-glycoside(%),reaction-2,13.8%
same,V183P/yield of O-glycoside(%),reaction-2,1.4%
same,V183P/yield of C-glycoside(%),reaction-3,13.6%
same,V183P/yield of O-glycoside(%),reaction-3,1.5%
